Laboratory results as given in PubChem BioAssay AID651820 (National Center for Advancing Translational Sciences (NCATS), 2012).
About 12,000 (3.5%) of roughly 340,000 compounds were called active. Inconclusive results, whose numbers are uncertain, are shown with a selection of clear calls. Calls come from the whole dose curve; as a rule, active = well fitted inhibition curve with a large enough effect; inconclusive = small, poorly fitted or top-dose-only effect, or another doubt; inactive = no such curve, though single readings can be large or run the other way. No potency is given beside an inconclusive call; the fits are too rough.

Assay: qHTS Assay for Inhibitors of Hepatitis C Virus (HCV)
Conditions: Huh7.5.1 HCVcc-Cre (HCVcc is cell-culture hepatitis C virus) infection, luciferase reporter, 44 h; activity change, negative = inhibition: at 41.8 µM (top of the series)
In short: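 Compounds are dispensed onto cells plated 4 h earlier at 1,000 per well, with HCVcc-Cre virus (about 0.5 moi) added next. Following 44 h of culture, luminescent signal is measured for 15 sec after 15 min with substrate at room temperature.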
% is set by controls: 0 for no effect and ±100 for the full control effect; potency is the fitted concentration of half-maximal effect; tags give direction and shape of the fitted curve.

SMILES	activity change, negative = inhibition	Potency
CCOc1cc(C(=O)Nc2ccon2)cc(OCC)c1OCC	inactive: -27.2%	
Cc1ccc(S(=O)(=O)N2CCN(C(=O)Cn3c(=O)cnc4ccccc43)CC2)c(C)c1		inconclusive [inhibitor, single point]
Cc1ccc(-c2nc(CNC(=O)c3ccco3)cs2)cc1		inconclusive [inhibitor, partial curve]
NS(=O)(=O)c1ccc(NC(=O)COC(=O)c2cnccn2)cc1	inactive: 6.61%	
COC(=O)CC1(C(=O)OC)Oc2ccc(Br)cc2C(=O)N1c1cc(Cl)c(Cl)cc1Cl (configuration not stated)		inconclusive [inhibitor, single point]
COc1ccccc1NC(=O)NNC(=O)c1ccc2c(c1)NC(=O)C(C)(C)O2		inconclusive [inhibitor, partial curve]
CCN(CCn1cccn1)Cc1ccccc1OCC(O)CN1CCc2ccccc2C1 (configuration not stated)		inconclusive [inhibitor, single point]
COc1cc(CC2COC(c3ccc(O)c(OC)c3)C2COC(C)=O)ccc1O (configuration not stated)	inactive: 23.6%	
Cc1ccc(C(=O)c2cc([N+](=O)[O-])ccc2N2CCN(C)CC2)cc1		inconclusive [inhibitor, partial curve]
NS(=O)(=O)c1ccc(CCNC(=O)CSc2nc3ccsc3c(=O)n2CCCCCC(=O)O)cc1		inconclusive [inhibitor, single point]
COCCOC(=O)c1c(NC(=O)CNC2CCCc3ccccc32)sc(C(N)=O)c1C (configuration not stated)	inactive: -14.3%	
COCCCC1CCN(C(=O)CCc2nnc(CCCCc3ccccc3)o2)CC1		inconclusive [inhibitor, single point]
Cc1cc(C)c(C#N)c(SCC(=O)Nc2cccc(S(=O)(=O)N3CCCC3)c2)n1		inconclusive [inhibitor, single point]
CCOC(=O)c1c(C)[nH]c(-c2csc(N)n2)c1C		inconclusive [inhibitor, full curve]
O=C(c1ccc(N2CCN(C3CC(=O)N(Cc4cccs4)C3=O)CC2)cc1)c1cccnc1 (configuration not stated)		active: 12.6 µM
Nc1cccc(Nc2nc(OC(C(F)(F)F)C(F)(F)F)nc(OC(C(F)(F)F)C(F)(F)F)n2)c1		inconclusive [inhibitor, single point]
COC(=O)CCC(=O)OC1(C)C(=O)C=C2C=C(C3CC3)N(CCN3CCOCC3)C=C2C1=O (configuration not stated)	inactive: 16.1%	
Cc1ccc(C)c(N)c1	inactive: 1.48%	
O=C1CCCN2N=C(SCC(=O)Nc3cccc(F)c3)SC2=N1		inconclusive [inhibitor, single point]
Cc1ccc(-c2[nH]ncc2/C=C(\C#N)C(=O)NC2CCCCC2)cc1		inconclusive [inhibitor, partial curve, poor fit]
COc1ccc(C(=O)Nc2ccc3[nH]ccc3c2)cc1		inconclusive [inhibitor, single point]
COc1ccccc1OCCNC(=O)c1cccc(S(=O)(=O)N2CCN(Cc3ccccc3)CC2)c1		inconclusive [inhibitor, partial curve]
Cc1cc(C)cc(NC(=O)c2ccc(Cn3nc(C)c(Cl)c3C)o2)c1		inconclusive [inhibitor, full curve]
CCC1(C)Cc2c(sc(NC(=S)NC(=O)c3ccccc3)c2C#N)CO1 (configuration not stated)	inactive: 6.61%	

SMILES	activity change, negative = inhibition	Potency
O=C(Cc1c(Cl)cccc1Cl)NCCc1ccc(Cl)cc1	inactive: -0.202%	
COc1ccccc1CNC(=O)c1cc(-c2cccnc2)nc2ccccc12		inconclusive [inhibitor, single point]
Cc1c(Nc2scc(-c3ccccc3)[n+]2-c2ccccc2)c(=O)n(-c2ccccc2)n1C		inconclusive [inhibitor, single point]
CCCc1ccc(OCc2ccc(C(=O)Nc3cccc(C)n3)o2)c(OC)c1		inconclusive [inhibitor, single point]
COc1ccccc1-c1sc2cc3c(cc2c1C#Cc1cncn1C)OCO3		active: 0.891 µM
COc1ccc(C(=O)Nc2ccc(N3CCN(C(=O)c4ccccc4C)CC3)cc2)cc1		active: 11.2 µM
O=C(NCCCc1ccccc1)c1cnc2n(c1=O)CCS2	inactive: 8.28%	
Cc1ccc(NS(=O)(=O)c2ccc(Br)cc2)nc1	inactive: 10.8%	
Cc1cc(C)c2cc(C(=O)Nc3ccccc3)[nH]c2c1		inconclusive [inhibitor, partial curve]
CCN(CC)CCCN1C(=O)CSC1c1ccc([N+](=O)[O-])cc1 (configuration not stated)	inactive: 11.5%	
COc1ccc(-c2cc(C(=O)N/N=C/c3ccc4c(c3)OCO4)c3ccccc3n2)c(OC)c1		inconclusive [inhibitor, partial curve]
COc1ccc(-c2cc(C(=O)OCC(=O)c3ccc(C)c([N+](=O)[O-])c3)c3ccccc3n2)cc1		inconclusive [inhibitor, partial curve]
Cc1ccc2[nH]c(=O)c(C(c3nnnn3Cc3ccccc3)N3CCc4ccccc43)cc2c1 (configuration not stated)		active: 31.6 µM
CC(C)(C)C(=O)Nc1nnc(SCc2cccc(F)c2)s1	inactive: -1.84%	
COc1cccc(C(=O)N(Cc2cc3cc(C)ccc3[nH]c2=O)C(C)C)c1		inconclusive [inhibitor, single point]
Nc1ccc(CN2CCOCC2)cc1	inactive: 21%	
Cc1ccc(C(=O)Nc2cccc(C(F)(F)F)c2)cc1NC(=O)c1cnnc2ccccc12	inactive: -12.4%	
CCOC(=O)CSc1nc2cc(OCC)ccc2cc1C#N	inactive: -27.4%	
O=C(COc1coc(CN2CCN(c3ccccc3)CC2)cc1=O)Nc1ccccc1	inactive: 0.824%	
O=C(CN1CCN(c2ccccc2)CC1)Nc1ccc(OCc2ccccc2)cc1		active: 11.2 µM
CCN(CC)S(=O)(=O)c1ccc(-c2nnc(SCC(C)=O)o2)cc1	inactive: 6.31%	
CCOc1nc(-c2ccc(C)cc2)ccc1-c1noc(-c2cccnc2)n1	inactive: -4.8%	
CCOC(=O)C1(CCC(C)C)CC(CSc2nc3ccccc3[nH]2)OC1=O (configuration not stated)		inconclusive [inhibitor, single point]
